# Data published in PubChem BioAssay (Tox21).
# “And” between values parts separate entries of the source, which are not always exact repeats. Equal values may be shown once. This list was built around the results that the source calls inconclusive (neither active nor inactive); the mix of calls is not that of the screen. For some assays here: A potency beside an inconclusive call is a rough fit, not a confirmed value. The source made the active and inactive calls. Unless noted, calls follow the shape of the full dose curve.
# Legend:
# [1] = biological target: Peroxisome proliferator-activated receptor gamma (Homo sapiens) (UniProt P37231); experiment: qHTS assay to identify small molecule antagonists of the peroxisome proliferator-activated receptor gamma (PPARg) signaling pathway (AID 743191); details: HEK293H PPARg-UAS-bla, beta-lactamase ratio, antagonist, 17 h; ratio activity, negative = inhibition: at 62.6 µM (top of the series) unless noted; also: nearly all actives have a fitted effect of over 30% in size; as to ratio activity, negative = inhibition: % is scaled to controls: 0 for no effect and ±100 for the full control effect
# Outline: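 GeneBLAzer PPARg UAS-bla HEK293H cells carrying a UAS-driven beta-lactamase reporter were plated at 3000 cells/well, preincubated 5 h at 37C, then given compound for 17 h at 37C; LiveBLAzer B/G FRET substrate was read after 1 h at room temperature.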
# [2] = qHTS assay for small molecule agonists of the antioxidant response element (ARE) signaling pathway (AID 743202; active = well fitted activation curve with a large enough effect in the signal ratio in the repeat runs, not every such curve was filed as active; inconclusive = weak or mixed curves, or effect the other way; inactive = no such curve, though single readings can be large or run the other way; the % refers to the signal ratio; as to activation: % is scaled to controls: 0 for no effect and ±100 for the full control effect); details: HepG2 ARE-bla reporter, beta-lactamase FRET, 16 h; activation: at 73.3 µM (top of the series) unless noted
# Outline: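 Following a 16 h, 37 C exposure of reporter HepG2 cells (ARE-driven beta-lactamase, 2,000 cells/well) to compounds, FRET substrate was applied for 2 h at room temperature and fluorescence intensity recorded.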
# [3] = qHTS assay to identify small molecule agonists of the peroxisome proliferator-activated receptor delta (PPARd) signaling pathway - cell viability counter screen (AID 743211; active = well fitted curve in the direction sought with a large enough effect in the repeat runs; inconclusive = weak or mixed curves; inactive = no such curve, though single readings can be large; an effect the other way counts as inactive or inconclusive; also: nearly all actives have a fitted effect of over 55% in size; as to activity change, negative = cytotoxicity: % is scaled to controls: 0 for no effect and ±100 for the full control effect); details: PPARd-bla HEK293H viability, CellTiter-Glo luminescence, 17 h; activity change, negative = cytotoxicity: at 62.6 µM (top of the series)
# Outline: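 Read-out: CellTiter-Glo luminescence, 30 min RT, measured in the same wells as the beta-lactamase reporter. Cells: GeneBLAzer PPAR delta UAS-bla HEK293H, 3000 cells/well, compound exposure 17 h at 37C.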
# [4] = qHTS assay for small molecule activators of the heat shock response signaling pathway - cell viability counter screen (AID 743209; active = well fitted curve in the direction sought with a large enough effect in the repeat runs; inconclusive = weak or mixed curves; inactive = no such curve, though single readings can be large; an effect the other way counts as inactive or inconclusive; also: nearly all actives have a fitted effect of over 50% in size); details: HSE-bla HeLa viability, CellTiter-Glo luminescence, 5 h; activity change, negative = cytotoxicity: at 62.6 µM (top of the series) unless noted
# Outline: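 Cytotoxicity counter screen run in the same wells as the heat-shock bla reporter assay: HeLa HSE-bla cells, 5 h compound exposure at 37 C, viability read by CellTiter-Glo luminescence.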
# [5] = qHTS assay for small molecule activators of the heat shock response signaling pathway (AID 743210; active = well fitted activation curve with a large enough effect in the signal ratio in the repeat runs, with a control signal flat, not every such curve was filed as active; inconclusive = weak or mixed curves; the % refers to the signal ratio); details: HeLa HSE-bla reporter, beta-lactamase ratio, 5 h; activation: at 62.6 µM (top of the series) unless noted
# Outline: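 Heat shock element–beta-lactamase HeLa reporter cells; qHTS with compounds for 5 h at 37 C; detection by FRET substrate fluorescence after 2.5 h at RT.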
# [6] = qHTS assay for small molecule agonists of the antioxidant response element (ARE) signaling pathway - cell viability counter screen (AID 743203); details: ARE-bla HepG2 viability, CellTiter-Glo luminescence, 16 h; viability change, negative = cytotoxic: at 73.3 µM (top of the series); also: nearly all actives have a fitted effect of over 55% in size
# Outline: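 Viability counter screen: CellTiter-Glo luminescence, read after 30 min at room temperature, in ARE-bla HepG2 wells. Compound exposure lasted 16 h at 37C/5% CO2, following a 5 h pre-incubation of the cells after plating.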
# Potency is read from the fitted curve at half-maximal effect; tags tell the direction and shape of the fitted curve or compound fluorescence and quenching.
# Chain of UniProt P37231 (P37231 whole entry, looked up): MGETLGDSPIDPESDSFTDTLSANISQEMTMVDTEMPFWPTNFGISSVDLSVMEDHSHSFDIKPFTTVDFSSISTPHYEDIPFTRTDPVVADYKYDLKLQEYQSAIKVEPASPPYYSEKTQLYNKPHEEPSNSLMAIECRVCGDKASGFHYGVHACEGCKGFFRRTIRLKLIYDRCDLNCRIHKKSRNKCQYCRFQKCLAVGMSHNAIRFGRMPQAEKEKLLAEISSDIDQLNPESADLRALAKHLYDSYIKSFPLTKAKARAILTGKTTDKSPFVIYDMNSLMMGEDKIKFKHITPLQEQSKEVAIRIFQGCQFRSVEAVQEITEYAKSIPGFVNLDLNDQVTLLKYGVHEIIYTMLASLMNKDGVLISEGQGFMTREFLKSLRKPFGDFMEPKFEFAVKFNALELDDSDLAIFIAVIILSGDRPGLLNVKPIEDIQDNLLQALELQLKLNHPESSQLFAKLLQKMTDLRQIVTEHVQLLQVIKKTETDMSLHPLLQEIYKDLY
smiles,measurement,setting,value
COc1nc(C)nc(N)n1,Potency,[1],inactive
same,Potency,[2],inactive
same,Potency,[3],inactive
Cn1c(=O)cc(Oc2ccc(F)cc2F)c2cnc(NCC(C)(C)O)nc21,Potency,[1],inconclusive: 15.5 µM [partial curve]
same,Potency,[2],active: 30.6 µM
same,Potency,[4],"inconclusive: 21.9 µM [cytotoxic, single point]"
same,Potency,[5],inconclusive: 21.9 µM [single point]
CC(=O)OCC1=C(C(=O)O)N2C(=O)[C@@H](NC(=O)Cc3cccs3)[C@H]2SC1,Potency,[1],inactive
same,activation,[2],inconclusive: 31.2%
same,Potency,[5],inconclusive: 33.5 µM [activator]
O=C(NCCN1CCOCC1)c1ccc(Cl)cc1,Potency,[1],inactive
same,Potency,[2],inactive
same,Potency,[3],inactive
CC/C=C\CCOC(=O)c1ccccc1O,Potency,[1],inactive
same,Potency,[6],"inconclusive: 0.217 µM [rising, full curve]"
C=CCCCCCCCCC=O,"ratio activity, negative = inhibition",[1],inconclusive: -33.6%
same,activation,[2],inconclusive: 18.5%
same,Potency,[3],"inconclusive: 61.6 µM [cytotoxic, partial curve, poor fit]"
CC(C)OC(=O)C(O)(CC(=O)O)CC(=O)O,Potency,[1],inactive
same,Potency,[6],"inconclusive: 68.6 µM [cytotoxic, partial curve, poor fit]"
COC(=O)Nc1nc2ccc(Sc3ccccc3)cc2[nH]1,"ratio activity, negative = inhibition",[1],inconclusive: -18.7% and inconclusive: -21%
same,activation,[2],inconclusive: 5.78% and inconclusive: -5.52%
same,Potency,[3],"inconclusive: 24.5 µM [cytotoxic] and inconclusive: 8.41 µM [cytotoxic, partial curve, poor fit]"
